Values marked as one replicate rest on one cluster of the flow cell; about a third of the high ones do not repeat.
What follows are sequences tested on ATP (assay: switch fluorescence ratio, 500 uM ATP over buffer (Cy3 cluster intensity, sum of 5 cycles each) (fold (ratio)); higher = stronger signal-on switching upon ATP binding; sequences stand for … in TCGTCGGCAGCGTCAGATGTGTATAAGAGACAGTTTTTTTTTTTTTTTTTTTTTTTTT…TC). Conditions: aptamer strand: ATP DNA aptamer (quencher-CACCTGGGGGAGTATTGCGGAGGAAGG + anchor), 100 nM annealed; ATP concentration: 500 uM; one replicate.
In short: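 Per cluster, summed Cy3 intensity from the target cycles was divided by that from the buffer cycles to give the fluorescence ratio, then averaged per switch-domain sequence. Clusters outside 100-1000 RFU were excluded. The Cy3-labelled switching-strand clusters, on a modified Illumina MiSeq flow-cell, were annealed to 100 nM quencher-labelled ATP aptamer and imaged in selection buffer, then after 15 min with 500 uM ATP at 22 °C, for five cycles with NaOH stripping and re-annealing between them.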
For GGCTTAAGAA, the switch fluorescence ratio was 1.01.
GGCTTCACGT showed a switch fluorescence ratio of 0.97.
Work on GGCTTCCATC yielded a switch fluorescence ratio of 1.03.
For GGCTTCCGTC, the switch fluorescence ratio was 1.12.
In the case of GGCTTGGCCT, the switch fluorescence ratio is reported as 0.989.
In the case of GGCTTGGGAC, the switch fluorescence ratio is reported as 0.987.
Work on GGCTTTCAGA yielded a switch fluorescence ratio of 0.955.
With GGGAAACCC the switch fluorescence ratio was 1.03.
GGGAAACCTC gave a switch fluorescence ratio of 0.998.
With GGGAACCGAA the switch fluorescence ratio was 1.04.
Sequence GGGAACGGCA has a switch fluorescence ratio of 0.992.
Sequence GGGAACTCGA has a switch fluorescence ratio of 1.01.
Sequence GGGAAGTGCC has a switch fluorescence ratio of 0.945.
Work on GGGAAGTGCT yielded a switch fluorescence ratio of 0.884.
In the case of GGGAAGTTCC, the switch fluorescence ratio is reported as 1.02.
Sequence GGGAATAGTA has a switch fluorescence ratio of 1.03.
GGGAATC showed a switch fluorescence ratio of 1.03.
In the case of GGGAATTCGC, the switch fluorescence ratio is reported as 0.99.
GGGACAAAGA showed a switch fluorescence ratio of 0.978.
GGGACCACGT gave a switch fluorescence ratio of 1.
In the case of GGGACCGACG, the switch fluorescence ratio is reported as 1.13.
GGGACCGATG showed a switch fluorescence ratio of 0.962.
With GGGACCGCGT the switch fluorescence ratio was 1.
GGGACGAAAT showed a switch fluorescence ratio of 1.41.
GGGACGAGAT showed a switch fluorescence ratio of 1.04.
GGGACGGTTG gave a switch fluorescence ratio of 0.989.
Work on GGGACGTGGA yielded a switch fluorescence ratio of 1.01.
GGGACTATAT was tested, and the switch fluorescence ratio was 1.07.
Sequence GGGACTGCTT has a switch fluorescence ratio of 0.971.
For GGGAGACCTC, the switch fluorescence ratio was 1.03.
With GGGAGAGTGC the switch fluorescence ratio was 1.04.
Work on GGGAGATGAA yielded a switch fluorescence ratio of 1.02.
GGGAGATGGT gave a switch fluorescence ratio of 0.96.
GGGAGTTGCC gave a switch fluorescence ratio of 0.954.
In the case of GGGATACAGT, the switch fluorescence ratio is reported as 1.03.
Work on GGGATACCTG yielded a switch fluorescence ratio of 1.
In the case of GGGATATACC, the switch fluorescence ratio is reported as 1.03.
In the case of GGGATCTTGT, the switch fluorescence ratio is reported as 0.978.
For GGGATGACTC, the switch fluorescence ratio was 0.935.
GGGATGGAGA gave a switch fluorescence ratio of 0.994.
In the case of GGGATGGAGC, the switch fluorescence ratio is reported as 0.964.
For GGGATGGAGG, the switch fluorescence ratio was 0.964.
In the case of GGGATTACAA, the switch fluorescence ratio is reported as 1.03.
GGGATTCAGT was tested, and the switch fluorescence ratio was 0.99.
In the case of GGGATTCGG, the switch fluorescence ratio is reported as 0.973.
GGGATTGCA gave a switch fluorescence ratio of 1.01.
GGGATTGGTA showed a switch fluorescence ratio of 0.978.
For GGGCAACGTA, the switch fluorescence ratio was 0.898.
GGGCACAATG showed a switch fluorescence ratio of 1.01.
GGGCAGAGG showed a switch fluorescence ratio of 0.96.
GGGCAGGGAC was tested, and the switch fluorescence ratio was 1.01.
With GGGCATCCGG the switch fluorescence ratio was 1.
For GGGCATCTCT, the switch fluorescence ratio was 0.976.
GGGCATTTTA gave a switch fluorescence ratio of 1.05.
Sequence GGGCCAATGG has a switch fluorescence ratio of 1.
Sequence GGGCCACATT has a switch fluorescence ratio of 1.02.
GGGCCACCAT gave a switch fluorescence ratio of 1.02.
For GGGCCACTGA, the switch fluorescence ratio was 1.01.
GGGCCACTGC was tested, and the switch fluorescence ratio was 0.924.
In the case of GGGCCGCGC, the switch fluorescence ratio is reported as 0.976.
Work on GGGCCGTGCT yielded a switch fluorescence ratio of 1.02.
Sequence GGGCGAGAAA has a switch fluorescence ratio of 1.01.
For GGGCGAGACA, the switch fluorescence ratio was 1.04.
Work on GGGCGAGCAT yielded a switch fluorescence ratio of 1.04.
GGGCGGCGGT showed a switch fluorescence ratio of 0.996.
GGGCGGTGTT gave a switch fluorescence ratio of 0.969.
GGGCTAAA showed a switch fluorescence ratio of 2.94.
For GGGCTAATAT, the switch fluorescence ratio was 1.04.
GGGCTCAACC showed a switch fluorescence ratio of 1.02.
GGGCTCTGCA gave a switch fluorescence ratio of 1.06.
For GGGCTGTCAG, the switch fluorescence ratio was 0.995.
For GGGCTTCAAA, the switch fluorescence ratio was 1.
GGGCTTCAC was tested, and the switch fluorescence ratio was 0.99.
Work on GGGCTTGTTT yielded a switch fluorescence ratio of 0.995.
GGGCTTTTAT showed a switch fluorescence ratio of 0.985.
Sequence GGGGAAAGTG has a switch fluorescence ratio of 1.04.
With GGGGAATTC the switch fluorescence ratio was 1.
GGGGACAGG gave a switch fluorescence ratio of 1.04.
In the case of GGGGACATAG, the switch fluorescence ratio is reported as 1.01.
GGGGACCCGA showed a switch fluorescence ratio of 1.
GGGGACGTAG was tested, and the switch fluorescence ratio was 0.963.
With GGGGACTAGA the switch fluorescence ratio was 0.977.
GGGGAGCACA showed a switch fluorescence ratio of 1.01.
In the case of GGGGAGTAAT, the switch fluorescence ratio is reported as 1.03.
GGGGATCTCT showed a switch fluorescence ratio of 1.03.

From the supplement of paper PMC10126150
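Note: ATP exposure 15 min at 22 °C before imaging.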
